The densities may have been worked out from excess volumes.
Assay: xn = mol fraction of the nth substance listed
Details: 100 kPa

C[C@H](N)C(=O)[O-].C[N+](C)(C)CCO + O
mass density [kg/m3]
Details	x1 = 0.097	x1 = 0.198	x1 = 0.294	x1 = 0.495	x1 = 0.597	x1 = 0.692	x1 = 0.799	x1 = 0.899	x1 = 1
293.15 K	1079.9	–	1119.4	1125.7	1126.8	1127.8	1128.4	1127.5	1128.2
298.15 K	1077.4	1106.8	1116.5	–	1123.9	1124.9	1125.5	1124.6	1125.2
303.15 K	1074.8	–	1113.6	1119.9	1120.9	–	1122.5	1121.7	1122.3

— a compilation of properties of binary mixtures (doi:10.1021/acs.jced.3c00247)
